Source: publication PMC7694937
Results are given in words; binding and its absence hold for the method and conditions named. In cells and extracts the contact can be indirect. Some entries that bind do so weakly or less than the wild type. For some assays here: Where a sequence is shown, tags or fusion partners need not be part of it.

Chains of the proteins cited; added tags and fusions are not shown.
UniProt P29466: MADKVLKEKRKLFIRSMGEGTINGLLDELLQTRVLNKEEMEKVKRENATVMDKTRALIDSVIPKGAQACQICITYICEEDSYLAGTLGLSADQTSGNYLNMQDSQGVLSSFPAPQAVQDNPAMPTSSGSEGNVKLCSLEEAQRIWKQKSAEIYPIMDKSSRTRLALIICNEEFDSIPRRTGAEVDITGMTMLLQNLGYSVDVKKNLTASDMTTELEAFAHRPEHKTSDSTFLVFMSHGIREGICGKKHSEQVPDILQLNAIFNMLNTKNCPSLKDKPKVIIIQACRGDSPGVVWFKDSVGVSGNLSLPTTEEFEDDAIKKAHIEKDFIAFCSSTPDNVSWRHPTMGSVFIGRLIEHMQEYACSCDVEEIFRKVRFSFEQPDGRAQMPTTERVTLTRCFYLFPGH
UniProt Q96P20: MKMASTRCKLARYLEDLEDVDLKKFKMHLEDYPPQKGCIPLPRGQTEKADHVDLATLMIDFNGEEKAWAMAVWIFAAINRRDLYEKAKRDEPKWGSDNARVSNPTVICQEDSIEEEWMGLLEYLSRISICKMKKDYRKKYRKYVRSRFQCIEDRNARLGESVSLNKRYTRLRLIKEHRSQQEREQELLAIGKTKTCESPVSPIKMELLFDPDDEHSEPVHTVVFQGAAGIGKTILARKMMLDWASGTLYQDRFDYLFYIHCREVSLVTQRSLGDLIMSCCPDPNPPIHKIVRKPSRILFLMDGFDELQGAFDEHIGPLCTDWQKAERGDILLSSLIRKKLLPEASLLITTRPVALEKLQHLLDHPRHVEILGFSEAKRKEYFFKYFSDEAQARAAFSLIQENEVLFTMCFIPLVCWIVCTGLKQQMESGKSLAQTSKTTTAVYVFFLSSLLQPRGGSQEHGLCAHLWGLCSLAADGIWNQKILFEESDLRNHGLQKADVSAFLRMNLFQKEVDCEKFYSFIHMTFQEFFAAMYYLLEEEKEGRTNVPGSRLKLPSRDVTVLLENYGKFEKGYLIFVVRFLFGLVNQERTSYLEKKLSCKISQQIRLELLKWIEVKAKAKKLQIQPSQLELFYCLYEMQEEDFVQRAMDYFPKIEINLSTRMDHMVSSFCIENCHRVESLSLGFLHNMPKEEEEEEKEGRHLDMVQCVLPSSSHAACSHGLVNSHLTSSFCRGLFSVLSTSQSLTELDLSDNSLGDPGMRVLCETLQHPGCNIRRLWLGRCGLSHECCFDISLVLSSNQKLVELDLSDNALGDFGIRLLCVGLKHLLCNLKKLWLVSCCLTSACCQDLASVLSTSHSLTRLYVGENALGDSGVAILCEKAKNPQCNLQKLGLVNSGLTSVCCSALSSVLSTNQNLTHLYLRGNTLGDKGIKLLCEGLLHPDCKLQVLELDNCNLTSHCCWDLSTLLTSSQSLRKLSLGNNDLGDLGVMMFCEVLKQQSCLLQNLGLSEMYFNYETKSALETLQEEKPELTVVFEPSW
UniProt P49023: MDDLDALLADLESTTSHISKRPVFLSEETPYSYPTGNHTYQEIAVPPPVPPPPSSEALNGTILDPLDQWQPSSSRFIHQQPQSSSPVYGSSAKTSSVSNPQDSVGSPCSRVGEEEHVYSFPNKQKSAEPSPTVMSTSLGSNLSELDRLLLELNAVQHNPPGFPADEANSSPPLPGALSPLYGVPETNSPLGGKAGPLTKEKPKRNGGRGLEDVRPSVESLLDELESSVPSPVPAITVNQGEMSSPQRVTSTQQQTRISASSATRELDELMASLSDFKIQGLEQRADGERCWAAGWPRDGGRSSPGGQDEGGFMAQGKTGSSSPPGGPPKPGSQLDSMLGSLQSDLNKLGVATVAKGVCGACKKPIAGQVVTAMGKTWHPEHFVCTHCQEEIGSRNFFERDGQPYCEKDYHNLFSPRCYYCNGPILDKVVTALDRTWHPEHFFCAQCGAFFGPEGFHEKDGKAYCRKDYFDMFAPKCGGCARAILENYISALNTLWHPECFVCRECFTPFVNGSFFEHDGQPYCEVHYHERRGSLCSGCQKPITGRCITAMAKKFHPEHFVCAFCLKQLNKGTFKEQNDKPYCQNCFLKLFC

Key:
Assay in all cases: co-IP; HEK293T cells co-transfected with Flag- and HA-tagged plasmids; lysis in 50 mM Tris-HCl pH 7.5, 300 mM NaCl, 1% Triton-X, 5 mM EDTA, 10% glycerol; IP with anti-Flag antibody and Protein-G Sepharose, immunoblot with anti-HA and anti-Flag; in some panels cells treated with DMSO or ATP (5 mM) for 2 h; Fig. 6d-g shown as pairs of IPs whose antibodies the legend does not name
Flag-Casp-1 (human) = Flag-Casp-1 (human) (UniProt P29466)
Flag-NLRP3 (human) = Flag-NLRP3 (human) (UniProt Q96P20)
Flag-P2X7R(27–595) = biological target: T1, Flag-P2X7R(27–595) (UniProt Q99572)
T1 sequence: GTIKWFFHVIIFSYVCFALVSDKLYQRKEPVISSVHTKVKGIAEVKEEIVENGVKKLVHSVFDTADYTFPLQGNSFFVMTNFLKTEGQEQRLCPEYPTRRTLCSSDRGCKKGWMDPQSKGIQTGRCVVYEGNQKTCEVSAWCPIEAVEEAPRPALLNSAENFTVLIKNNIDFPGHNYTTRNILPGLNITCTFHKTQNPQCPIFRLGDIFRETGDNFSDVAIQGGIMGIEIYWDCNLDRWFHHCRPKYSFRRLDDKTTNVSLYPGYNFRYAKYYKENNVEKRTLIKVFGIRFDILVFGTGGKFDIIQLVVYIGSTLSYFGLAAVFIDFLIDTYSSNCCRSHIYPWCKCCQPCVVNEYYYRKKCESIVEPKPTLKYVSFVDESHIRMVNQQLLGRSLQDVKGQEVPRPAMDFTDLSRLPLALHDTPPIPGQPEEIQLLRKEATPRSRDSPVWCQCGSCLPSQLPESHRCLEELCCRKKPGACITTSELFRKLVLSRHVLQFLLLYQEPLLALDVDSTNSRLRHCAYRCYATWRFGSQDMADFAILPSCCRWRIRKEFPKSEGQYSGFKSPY

Flag-P2X7R(36–595) = biological target: T2, Flag-P2X7R(36–595) (UniProt Q99572)
T2 sequence: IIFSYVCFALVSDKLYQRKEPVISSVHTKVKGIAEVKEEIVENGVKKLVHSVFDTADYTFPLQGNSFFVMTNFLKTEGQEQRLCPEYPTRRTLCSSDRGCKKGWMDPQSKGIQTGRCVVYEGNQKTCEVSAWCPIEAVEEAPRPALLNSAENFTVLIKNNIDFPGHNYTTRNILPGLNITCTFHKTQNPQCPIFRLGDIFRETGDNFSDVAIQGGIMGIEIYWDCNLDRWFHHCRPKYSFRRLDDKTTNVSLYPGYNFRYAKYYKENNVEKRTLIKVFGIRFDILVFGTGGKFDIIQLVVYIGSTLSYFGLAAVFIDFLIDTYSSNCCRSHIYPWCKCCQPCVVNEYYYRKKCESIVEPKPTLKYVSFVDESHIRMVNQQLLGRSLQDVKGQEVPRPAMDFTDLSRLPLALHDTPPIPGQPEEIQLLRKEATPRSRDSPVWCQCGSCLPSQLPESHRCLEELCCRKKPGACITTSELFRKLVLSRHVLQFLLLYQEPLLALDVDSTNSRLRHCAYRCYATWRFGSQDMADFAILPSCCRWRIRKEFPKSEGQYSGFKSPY

Flag-P2X7R(K30A) = biological target: T3, Flag-P2X7R(K30A) (UniProt Q99572)
T3 sequence: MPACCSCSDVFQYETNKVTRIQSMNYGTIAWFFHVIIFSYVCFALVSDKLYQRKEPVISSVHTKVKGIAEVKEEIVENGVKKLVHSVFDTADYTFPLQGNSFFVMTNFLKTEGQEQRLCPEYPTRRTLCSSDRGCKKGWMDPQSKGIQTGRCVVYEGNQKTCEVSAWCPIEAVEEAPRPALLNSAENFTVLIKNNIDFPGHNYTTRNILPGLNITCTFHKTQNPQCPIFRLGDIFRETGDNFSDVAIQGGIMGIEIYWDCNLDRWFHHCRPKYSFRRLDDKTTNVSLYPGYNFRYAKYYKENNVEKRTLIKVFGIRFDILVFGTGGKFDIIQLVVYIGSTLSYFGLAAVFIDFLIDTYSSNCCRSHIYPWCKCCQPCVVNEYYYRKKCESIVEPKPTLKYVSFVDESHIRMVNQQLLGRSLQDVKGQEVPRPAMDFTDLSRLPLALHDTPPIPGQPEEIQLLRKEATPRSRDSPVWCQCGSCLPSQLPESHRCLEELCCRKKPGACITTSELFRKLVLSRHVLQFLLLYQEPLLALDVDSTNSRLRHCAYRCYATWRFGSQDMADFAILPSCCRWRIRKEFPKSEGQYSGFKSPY

Q: Which results are given for HA-Paxillin (from UniProt P49023 1-591)?
A: binding (Flag-Casp-1 (human)): no binding; binding (Flag-NLRP3 (human)): binds; binding (Flag-P2X7R(27–595)): binds; binding (Flag-P2X7R(36–595)): no binding; binding (Flag-P2X7R(K30A)): no binding
